Source: PubChem BioAssay AID1346428 (National Center for Advancing Translational Sciences (NCATS), 2018)
Values joined by “and” are separate entries in the source; they are usually repeats but may differ in a detail not shown here. Equal values may be shown once. The campaign covered roughly 48,000 compounds. About 1,200 (2.5%) were called active. Not shown: some 2% with an inconclusive outcome.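 How the source made its calls: active means activation of at least 60% and not above a set upper limit (about 1 call in 100 departs from these limits); inconclusive means activation of 40% to 60%, or above that upper limit; inactive means activation under 40%.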 The list shows a part of the results.

target: Probable G-protein coupled receptor 32 (Homo sapiens) (UniProt O75388); experiment: qHTS for Agonists of Human Resolvin D1 Receptor DRV1; settings: CHO-K1 GPR32 beta-arrestin PathHunter luminescence, 90 min; at 76.9 µM; hits give high values; zero percent set by DMSO-only wells; further: 0% is about no effect
Method in brief: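 Using DMSO wells as EC0, agonist-induced signal was taken as chemiluminescence from beta-Gal reconstituted upon beta-arrestin recruitment to GPR32 in CHO-K1 cells after 90 min compound treatment.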

Chain of UniProt O75388 (O75388 whole entry, looked up): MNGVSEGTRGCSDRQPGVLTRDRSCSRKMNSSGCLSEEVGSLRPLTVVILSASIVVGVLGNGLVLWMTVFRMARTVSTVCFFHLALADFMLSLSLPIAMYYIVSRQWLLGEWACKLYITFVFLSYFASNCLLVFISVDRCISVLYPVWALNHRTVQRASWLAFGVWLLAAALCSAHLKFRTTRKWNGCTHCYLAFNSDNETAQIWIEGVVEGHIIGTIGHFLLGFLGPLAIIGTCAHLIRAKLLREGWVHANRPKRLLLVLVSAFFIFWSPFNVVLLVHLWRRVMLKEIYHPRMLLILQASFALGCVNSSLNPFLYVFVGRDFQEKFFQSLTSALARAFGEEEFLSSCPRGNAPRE

activation, inactive:
Cc1nn(CC(=O)N2CCN(c3cccc(C(F)(F)F)c3)CC2)c(=O)c2cc3sccc3n12 11.7%
CCCN1CCN(c2cc3c(cc2F)c(=O)c(S(=O)(=O)c2ccc(CC)cc2)cn3CC)CC1 -13.8%
CCn1ccc2c(OCC(=O)NCc3ccccc3)cccc2c1=O 21.8%
NC(=O)c1ccc(NC(=O)C2CCN(S(=O)(=O)Cc3ccccc3)CC2)cc1 -7.74%
CCOc1ccc(NC(=O)CC(C)O)cc1 (stereo not drawn) 0.538%
COc1ccc2oc(-c3ccc(C)c(NC(=O)c4ccc(-c5ccccc5[N+](=O)[O-])o4)c3)nc2c1 3.67%
Cc1cccc(-c2nc3c(cnn3-c3ccccc3)c(=O)n2-c2ccc(Br)cc2)c1 -29.1%
Cc1ccc(C(=O)O)cc1NC1(c2ccccc2)C(=O)c2ccccc2C1=O -14.9%
CC(C)(C)C1CCc2nc(NC(=O)c3ccc([N+](=O)[O-])cc3)sc2C1 (stereo not drawn) 11.4%
CC1Cn2c(C(=O)NCc3cccc(Br)c3)cc3cccc(c32)S1 (stereo not drawn) -26.4%
Cc1c(Cl)cccc1NC(=O)CSc1nc2ncccc2o1 -7.52%
CC(=O)OCC1=C(C(=O)O)N2C(=O)[C@@H](NC(=O)Cc3cccs3)[C@H]2SC1 6.51% and 7.02%
COc1ccccc1CNC(=O)C1CCCN(c2nnc(C)c3c(C)n(-c4ccccc4)nc23)C1 (stereo not drawn) -2.17%
CCc1ccccc1NC(=O)c1sc2nc(C)cc(COC)c2c1N -33.8%
Cc1ccc2[nH]c(CSc3nnc(NC(=O)c4ccccc4F)s3)cc(=O)c2c1 31.8%
O=C(CCSCc1cccc(Cl)c1)NCc1ccc(F)cc1Cl 23%
COc1ccc(-c2nc3ccc(C4=NNC(=O)CC4C)cc3[nH]2)cc1 (stereo not drawn) 23.6%
Cc1nn(CCC(=O)NCc2ccc(Cl)cc2)c(=O)c2nn(-c3ccccc3)c(C)c12 0.367%
COc1ccc(CCCc2nnc(SCC(=O)Nc3cccc(C)c3)o2)cc1 41.4%
COc1ccc(-c2onc(C)c2C)cc1S(=O)(=O)NCc1ccc(C)o1 -1.84%
COCC(C)NC(=O)c1cc2c(=O)n3cccc(C)c3nc2s1 (stereo not drawn) -8.55%
CCOC(=O)c1ccc(-c2ccc(/C=C(\C#N)c3nc4ccc(C)cc4[nH]3)o2)cc1 -23.8%
CCOc1cccc(CC(=O)NCc2ccc3c(c2)CCN3C(C)=O)c1OCC -19.9%
CCC(C)NC(=O)CCc1c(C)nc2c(c(C)nn2-c2ccc(C)cc2)c1C (stereo not drawn) -18.1%
Cc1ccc2[nH]cc(C(c3ccccc3)c3ccc(C)s3)c2c1 (stereo not drawn) -5.88%
Cc1c(Cl)cccc1NC(=O)CC(c1ccc(F)cc1)N1Cc2ccccc2C1=O (stereo not drawn) -21.7%
CCN(c1ccc(Cl)cc1)S(=O)(=O)c1nnc(NC(=O)c2ccccc2C)s1 -2.28%
O=C(NCCCc1nc2ccccc2n1Cc1ccccc1Cl)c1ccco1 -8.74%
CC(CNC(=O)C1CCN(C(=O)N2CCOc3ccc(Cl)cc32)CC1)c1ccccc1 (stereo not drawn) -3.13%
Cc1nc2n(c(=O)c1CCN1CCC(c3noc4cc(F)ccc34)CC1)CCCC2O (stereo not drawn) -2.91%
O=[N+]([O-])c1cc(-c2nc(-c3ccco3)no2)ccc1NCc1ccccc1 -4.72%
COc1ccc(-n2nc(C(=O)N(C)c3cc(Cl)ccc3OC)c3c4ccccc4n(C)c3c2=O)cc1 -4.92%
CCc1ccc(Sc2cc(C(=O)O)c3ccccc3n2)cc1 -11.7%
CCN(CC)CCNC(=O)COc1ccc(OC)cc1 -3.78%
N#CC1=C2SCN(C3CCCCC3)CN2C(=O)CC1c1c(F)cccc1Cl (stereo not drawn) 9.55%
COc1ccc(S(=O)(=O)c2nnn(-c3ccccc3F)c2C)cc1 12.3%
Cc1nn(CCCC(=O)NCc2ccc(OC(C)C)cc2)c(=O)c2c1sc1ccccc12 -16.7%
Cc1ccc(Cc2nc3ccccc3nc2SCC(=O)N2CCN(c3ccccc3)CC2)cc1 -17.2%
CCOc1ccccc1NC(=O)C1=C(C)Nc2ncnn2C1c1ccc(NC(C)=O)cc1 (stereo not drawn) 5.4%
Cc1ccc(NC(=O)CC2Nc3cc(C)c(C)cc3NC2=O)c(C)c1 (stereo not drawn) -17.6%
Cc1cccc(N2CCN(c3ccc(C(=O)O)cc3NC(=O)c3cccc(Cl)c3)CC2C)c1 (stereo not drawn) 5.49%
Cc1cccc(C)c1NC(=O)Cn1c(=O)n(CCCS(=O)(=O)C2CCCCC2)c(=O)c2ccccc21 -20.6%
CCc1ccc(-c2nc(SCC(=O)NCC3CCCO3)c(-c3ccc(C)cc3)[nH]2)cc1 (stereo not drawn) -17.2%
CCCN(C(=O)Cn1ncc2c1-c1ccccc1OC2)c1cccc(C)c1 7.16%
CCOCCc1nn2c(=O)cc(COC(=O)Cc3ccccc3)nc2s1 -8.04%
COc1ccc(CCNC(=O)c2nc(SCc3ccccc3F)ncc2Cl)cc1OC -32.2%
CCOC(=O)C1CCN(c2c(C(=O)c3ccc(OC)cc3)cnc3ccccc23)CC1 7.23%
O=C(CSc1nccn1C1CCCC1)Nc1cccc(F)c1 -5.37%
CSCC[C@@H](C(=O)Nc1cccc(F)c1)N1Cc2ccccc2C1=O -24%
CN(c1ccccc1)S(=O)(=O)c1nnc(NC(=O)COc2ccccc2)s1 -6.87%
CCOC(=O)c1cc2c(=O)n3ccccc3nc2n(Cc2ccco2)c1=NC(=O)c1ccc(C)c(C)c1 -20.3%
O=C(Nc1cc2c(cc1C(=O)c1cccc(Br)c1)OCCO2)c1ccccc1F 3.42%
CN(C(=O)Cn1cnc2onc(-c3ccc(F)cc3)c2c1=O)c1ccccc1Cl 29.7%
Cc1cc(C)cc(-n2c(C)cc(C(=O)C(=O)Nc3nnc(C)s3)c2C)c1 -0.179%
Cc1ccc(-n2c(=O)c3ccc(C(=O)NCc4ccco4)cc3n(CC(=O)Nc3ccccc3C(F)(F)F)c2=O)cc1 1.7%
CCOc1ccccc1CNC(=O)c1ccc(NC(=O)N2CC(C)Sc3ccccc32)cc1 (stereo not drawn) -19.4%
CCCN(CCC)C(=O)C(CCC(=O)OCCCN1CCN(CCOC(=O)Cc2c(C)n(C(=O)c3ccc(Cl)cc3)c3ccc(OC)cc23)CC1)NC(=O)c1ccccc1 (stereo not drawn) -29.8%
CCCN(CCC)C(=O)Cn1c(SCc2cccc(C(F)(F)F)c2)nc2cccnc21 -24.7%
CCOc1ccc(C(=O)NCc2nc3cccnc3n2Cc2cccc(OC)c2)cc1 -14.2%
O=C(NC1(C(F)(F)F)C(=O)Nc2c1c(=O)[nH]c(=O)n2-c1ccccc1)c1ccccc1 (stereo not drawn) 10.4%
C=CCCCCCCCCC(=O)O 19.5%
N#Cc1ccccc1NC(=O)C(=O)NCCc1csc2nc(-c3cccc(F)c3)nn12 -12.4%
Cc1cccc(NC(=O)N2CCN(C)c3ncccc32)c1C 0.206%
COc1ccc(OC)c(CNC(=O)CN(c2ccc(C)cc2)S(=O)(=O)N(C)C)c1 -20.3%
C=Cc1ccc(Cn2c(=O)cc(C)c3c(C)nn(-c4ccccc4)c32)cc1 -6.23%
COc1cc(OC)cc(-c2cc3nc(C)c(CCC(=O)Nc4ccc(C(C)=O)cc4)c(C)n3n2)c1 -3.23%
O=C(NC1(C(F)(F)F)C(=O)Nc2c1c(=O)[nH]c(=O)n2-c1ccccc1)c1ccccc1Cl (stereo not drawn) -19.4%
COCc1cc(C)nc2sc3c(c12)NC(c1ccc(O)c(OC)c1)N(c1ccccc1)C3=O (stereo not drawn) -21.2%
COc1ccc(OCC(=O)N(Cc2cccs2)c2ccc(OC)cc2)cc1 -15.3%
CSCCC(NS(=O)(=O)c1ccc2c(c1)oc(=O)n2C)C(=O)Nc1ccc(Cl)cc1 (stereo not drawn) 11.8%
CC(C)c1ccc(CNc2nc(-c3ccco3)nn2C(=O)c2ccc([N+](=O)[O-])cc2)cc1 -3.84%
COc1ccc(NC(=O)Cn2c(=O)n(Cc3ccc4c(c3)OCO4)c(=O)c3ccc(C(=O)NC4CCCCC4)cc32)cc1 -1.71%
COc1cc2c(C(=O)N3CCN(c4cccc(C(F)(F)F)c4)CC3)cn(CC(C)C)c(=O)c2cc1OC -29.5%
COc1ccc2c(c1)cc1c(=O)n(CC(=O)NCCCOC(C)C)nc(C)n12 -4.17%
CCn1c(C)c(C)c2cc(C(=O)NCc3ccc(OC(C)C)cc3)ccc21 -15.3%
CCOCCCNc1nc2ccccc2n2c(CC)nnc12 -3.58%
COc1ccc(-c2noc(N3CCC(C(=O)N4CCN(c5ccccc5F)CC4)CC3)n2)cc1 -23.6%
COc1ccc(-c2cn3nc(N4CCCC(C(=O)Nc5ccccc5OC)C4)sc3n2)cc1 (stereo not drawn) -2.27%
COc1ccc(Cl)cc1S(=O)(=O)Nc1cccc(-c2ccc(N3CCCC3)nn2)c1 37.8%
COc1ccccc1NC(=O)CSc1nc(-c2ccc(C)cc2)nc2c1Cc1c(CO)cnc(C)c1O2 -0.108%
Cc1nn2c(=O)cc(COC(=O)c3ccc(NC(=O)c4cccc(Br)c4)cc3)nc2s1 37.4%
Cc1ccc(Cl)cc1NC(=O)CN1C(=O)CSc2ccc(S(=O)(=O)N3CCCC3)cc21 -21.8%
Cc1cn([C@@H]2O[C@H](CO)[C@@H](O)[C@H]2F)c(=O)[nH]c1=O -10.8%
